# Source: PubChem BioAssay AID624417 (National Center for Advancing Translational Sciences (NCATS), 2012)
# In all, about 410,000 compounds went through this assay and about 6,400 (1.6%) were called active. The shares of active, inactive and inconclusive entries below differ from those in the screen. Calls follow the shape of the dose curve; as a rule, active = well fitted inhibition curve with a large enough effect; inconclusive = small, poorly fitted or top-dose-only effect; inactive = no such curve, though single readings can be large or run the other way. Potencies of inconclusive entries are left out as doubtful fits.
# Target: Glucagon-like peptide 1 receptor (Homo sapiens) (UniProt P43220)
# Chain of UniProt P43220 (P43220 whole entry, looked up): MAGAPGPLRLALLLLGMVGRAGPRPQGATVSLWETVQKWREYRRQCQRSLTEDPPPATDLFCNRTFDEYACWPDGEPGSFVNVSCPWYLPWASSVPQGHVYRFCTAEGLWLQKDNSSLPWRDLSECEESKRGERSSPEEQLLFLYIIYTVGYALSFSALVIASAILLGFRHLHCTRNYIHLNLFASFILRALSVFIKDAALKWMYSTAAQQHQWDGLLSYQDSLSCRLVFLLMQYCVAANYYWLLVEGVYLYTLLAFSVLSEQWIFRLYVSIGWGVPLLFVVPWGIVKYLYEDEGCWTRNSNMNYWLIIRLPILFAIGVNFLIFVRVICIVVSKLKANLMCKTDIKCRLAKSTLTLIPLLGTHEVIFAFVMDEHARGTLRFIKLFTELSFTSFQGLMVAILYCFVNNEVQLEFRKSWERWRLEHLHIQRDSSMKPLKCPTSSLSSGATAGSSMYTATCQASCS
# Experiment: qHTS of GLP-1 Receptor Inverse Agonists (Inhibition Mode); also: nearly all actives have a fitted effect of over 55% in size
# Conditions: HEK293 GLP-1R CRE-luciferase, luminescence, 24 h, GLP-1R form is constitutively active; series mostly up to 38.3 µM
# Method in brief: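 Luminescence readout: a drop in cAMP-driven luciferase signal flags inverse agonism at a constitutively active GLP-1R stably expressed in HEK293. Compound exposure lasted 24 hr at 37 deg C, 5% CO2.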
# Potency is read from the fitted curve at half-maximal effect; tags tell the direction and shape of the fitted curve.
row,SMILES,Potency
1,N=c1oc2c3c4c(cc2cc1C(=O)Nc1ccccc1)CCCN4CCC3,"inconclusive [inhibitor, single point]"
2,CCN(CC(=O)NCc1cccs1)C(=O)c1ccc(S(=O)(=O)N(C)C)cc1,inactive
3,COc1ccc(CCNc2ncnc3cc(OC)c(OC)cc23)cc1OC,inactive
4,C/C(=N\NS(=O)(=O)c1ccc(Br)cc1)c1ccncc1,inactive
5,CN(C)CCN(C(=O)c1ccc2ccccc2c1)c1nc2cc3c(cc2s1)OCCO3,"inconclusive [inhibitor, single point]"
6,COc1ccc(C(C(=O)NC(C)(C)C)N(C(=O)CCC(=O)Nc2cc(C)on2)c2cc(C)cc(C)c2)cc1 (centres undefined),"inconclusive [inhibitor, single point]"
7,CCCCNc1nc2sc3c(c2c(=O)n1-c1cccc(Cl)c1)CCN(C)C3,"inconclusive [inhibitor, single point]"
8,COc1ccc(C(=O)Oc2ccc(Br)cc2C(=S)N2CCOCC2)cc1,"inconclusive [inhibitor, full curve, poor fit]"
9,OCCNCCNCc1ccccc1OCc1ccccc1,"inconclusive [inhibitor, partial curve, poor fit]"
10,CC(C)Cn1c(N2CCN(C(=O)c3cccs3)CC2)nc2ccccc21,"inconclusive [inhibitor, partial curve, poor fit]"
11,COc1ccc(CCNC(=S)NCCc2c[nH]c3ccccc23)cc1,"inconclusive [inhibitor, single point]"
12,O=S(=O)(NCc1ccc(Cl)cc1Cl)c1cccs1,"inconclusive [inhibitor, single point]"
13,Cc1ccc(OCCNCC(O)COc2ccccc2)cc1 (centres undefined),"inconclusive [inhibitor, single point]"
14,N/C(=N\N=C\c1ccc([N+](=O)[O-])cc1)c1nonc1N,inactive
15,CCOC(=O)c1cc(CC)sc1NC(=O)C(c1ccccc1)c1ccccc1,"inconclusive [inhibitor, partial curve, poor fit]"
16,CCc1ccc(CNCc2ccc(OCC(O)CN(C)Cc3ccccc3)cc2)nc1 (centres undefined),"inconclusive [inhibitor, partial curve, poor fit]"
17,C/C(=N\NC(N)=S)C1=CCC2C3CC[C@H]4CC(O)CC[C@]4(C)C3CC[C@]12C (some centres undefined),"inconclusive [inhibitor, full curve, poor fit]"
18,CCCN(CC(=O)Nc1ccccc1C)C(=O)c1oc2ccc(OCC)cc2c1C,"inconclusive [inhibitor, partial curve, poor fit]"
19,Cc1ccc(C)c(NC(=S)N2CCC(C(=O)c3ccc(F)cc3)CC2)c1,"inconclusive [inhibitor, partial curve]"
20,CCSC1=NSC2=NC(=O)/C(=C\c3coc4ccccc4c3=O)C(=N)N12,inactive
21,COc1cccc(C(=O)Oc2ccccc2/C=C\C(=O)c2cc3ccccc3o2)c1,"inconclusive [inhibitor, single point]"
22,NC(=S)N=Nc1c(O)[nH]c2c(Cl)cc(Cl)cc12,"inconclusive [inhibitor, single point]"

row,SMILES,Potency
1,CCc1ccc(N2NC(=O)/C(=C/C=C/c3ccco3)C2=O)cc1,inactive
2,O=C(NC(c1ccc(-c2ccccc2)cc1)c1cnccn1)C1CCN(CCOc2ccc(Cl)cc2Cl)CC1 (centres undefined),"inconclusive [inhibitor, partial curve, poor fit]"
3,Cc1cc(NC(=O)COc2ccccc2)ccc1Cl,"inconclusive [inhibitor, single point]"
4,CC(C)(C)C1=CC(O)(c2ccccc2)C=C(C(C)(C)C)C1=O,"inconclusive [inhibitor, partial curve, poor fit]"
5,O=C(CCc1c[nH]c2ccccc12)Nc1ccc(S(=O)(=O)Nc2ncccn2)cc1,inactive
6,Cc1cccc(NC(=O)CN2C(=O)c3ccccc3Sc3ncccc32)c1C,inactive
7,O=C(c1cc(C2CC2)nc2ccc(Br)cc12)N1N=C(C(F)F)CC1(O)C(F)F (centres undefined),"inconclusive [inhibitor, single point]"
8,Cc1ccccc1NC(=O)CSc1n[nH]c(-c2ccccn2)n1,"inconclusive [inhibitor, single point]"
9,CCC1C(=O)CC(c2ccc([N+](=O)[O-])cc2)NC1c1ccc([N+](=O)[O-])cc1 (centres undefined),"inconclusive [inhibitor, partial curve, poor fit]"
10,CCOC(=O)CN(C(=O)CSc1nnc2c(n1)[nH]c1ccc(F)cc12)c1ccccc1,"inconclusive [inhibitor, single point]"
11,Cc1cc(C)cc(NC(=O)CN(c2ccc(F)cc2)S(C)(=O)=O)c1,"inconclusive [inhibitor, single point]"
12,CC(C)(C)c1ccccc1NC(=O)c1ccc(-n2cncn2)c([N+](=O)[O-])c1,"inconclusive [inhibitor, single point]"
13,CCN(CCCNC(=O)CSc1cc(=O)n(C)c2cc(Cl)ccc12)Cc1ccccc1,"inconclusive [inhibitor, partial curve]"
14,Cc1oc(-c2ccccc2)nc1CNC(=O)NC1CCCCC1,inactive
15,Cc1ccccc1C1N=C2Oc3ccccc3C=C2C(=O)N1 (centres undefined),"inconclusive [inhibitor, full curve, poor fit]"
16,S=C1CCSc2ccc(Cl)cc2N1,inactive
17,O=C(Nc1ccccn1)c1cc(-c2cccc(Cl)c2)nc2ccccc12,"inconclusive [inhibitor, partial curve, poor fit]"
18,COc1ccc(Nc2sc(C(=O)c3ccccc3)c(N)c2C(=O)Nc2cc(C)ccc2C)c(OC)c1,"inconclusive [inhibitor, partial curve, poor fit]"
19,COC(=O)c1cccc(NC(=S)NCCC2=CCCCC2)c1,"inconclusive [inhibitor, single point]"
20,Clc1ccccc1-c1ccc(CN2CCN(c3ccccc3)CC2)o1,"inconclusive [inhibitor, partial curve, poor fit]"
21,CCc1ccccc1NC(=O)CN(c1ccc(OC)cc1)S(=O)(=O)c1c(C)n[nH]c1C,"inconclusive [inhibitor, partial curve, poor fit]"
22,Cc1ccc(NC(=O)c2cc(S(=O)(=O)NCCC3=CCCCC3)ccc2F)cc1C,"inconclusive [inhibitor, partial curve, poor fit]"

row,SMILES,Potency
1,CC(C)(C)c1ccc(OCC(=O)N2CCN(c3ccccn3)CC2)cc1,"inconclusive [inhibitor, partial curve, poor fit]"
2,O=C(CSc1ccc(Cl)cc1)N1CCN(c2ccc([N+](=O)[O-])cc2Cl)CC1,"inconclusive [inhibitor, partial curve, poor fit]"
3,CC(C)(C)OC(=O)N1CCC(c2nnc(SCc3ccccc3F)o2)CC1,"inconclusive [inhibitor, single point]"
4,COc1ccc(S(=O)(=O)N2CCCC2CNC(=O)C(=O)NCc2ccc(C)cc2)cc1 (centres undefined),"inconclusive [inhibitor, single point]"
5,CCCCn1c(O)c(N=Nc2ccccc2O)c2ccccc21,"inconclusive [inhibitor, single point]"
6,CC(=O)c1sc(NC(=O)CCCc2nc3ccccc3c(=O)[nH]2)nc1-c1ccccc1,inactive
7,CC(C)CN1C(=O)NC2(CCCc3ccccc32)C1=O (centres undefined),"inconclusive [inhibitor, full curve]"
8,CCCCOC(=O)Nc1ccc(N2CCCCC2)cc1,"inconclusive [inhibitor, single point]"
9,Cn1c(NCc2ccccc2F)nc2cc(-c3ccsc3)sc2c1=O,"inconclusive [inhibitor, single point]"
10,COc1ccccc1C(=O)C1CCCN(Cc2cn[nH]c2C2CCCCC2)C1 (centres undefined),"inconclusive [inhibitor, single point]"
11,OCCN1CCN(c2ncnc3c2c(-c2ccccc2)cn3-c2ccc(Br)cc2)CC1,active: 10 µM
12,CCN1CCN(C(=O)c2[nH]c3ccc(OC)cc3c2C)CC1,inactive
13,COc1cccc(NC(=O)CN(C)C(=O)CC(C)c2ccccc2)c1 (centres undefined),"inconclusive [inhibitor, partial curve, poor fit]"
14,Cc1noc(C)c1COc1ccccc1C(=O)NC(C)c1ccc(Cl)cc1 (centres undefined),"inconclusive [inhibitor, single point]"
15,Cc1ccc(S(=O)(=O)N(C)c2ccc(C(=O)N3CCc4ccccc4C3)cc2)cc1,"inconclusive [inhibitor, single point]"
16,CN1OCC(S(=O)(=O)c2ccccc2)C1c1ccccc1 (centres undefined),inactive
17,CC1CCN(S(=O)(=O)c2ccc3nc(NCc4ccc(F)cc4)ccc3c2)CC1,"inconclusive [inhibitor, single point]"
18,COc1ccc(CCNc2cc(N3CCN(C(=O)c4ccccc4F)CC3)ccc2[N+](=O)[O-])cc1OC,inactive
19,O=C(OC(c1ccccc1)c1nccc2ccccc12)c1ccccc1 (centres undefined),"inconclusive [inhibitor, full curve, poor fit]"
20,CC(=O)c1cc(C#N)c(Oc2cc(C)cc(C)c2)nc1C,"inconclusive [inhibitor, single point]"
